Measurements published in PubChem BioAssay AID1671188 (National Center for Advancing Translational Sciences (NCATS), 2021).
The whole screen tested about 100,000 compounds, of which about 250 (0.25%) were called active. This list was built around the results that the source calls inconclusive (neither active nor inactive); the mix of calls is not that of the screen. Calls follow the shape of the dose curve; as a rule, active = well fitted inhibition curve with a large enough effect; inconclusive = small, poorly fitted or top-dose-only effect; inactive = flat fitted curve, though single readings scatter. No potency is given beside an inconclusive call; the fits are too rough.

Target: Alanine aminotransferase 2 (Homo sapiens) (UniProt Q8TD30)
Experiment: Primary qHTS assay for inhibitors of Glutamate pyruvate transaminase 2 (GPT2); also: nearly all actives have a fitted effect of over 60% in size
Conditions: Recombinant GPT2, coupled pyruvate oxidase/HRP Amplex Red fluorescence; series mostly up to 57.7 µM
Method in brief: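 Fluorescence of coupled pyruvate oxidase/HRP/Amplex Red system (50uM Amplex, 30 min, dark) reports pyruvate formed by GPT2. Enzyme reaction: 10ng/uL GPT2, 2mM L-alanine, 250uM a-KG, 30 min room temperature, pH 7.5; 50uM AOA control.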
Potency is read from the fitted curve at half-maximal effect; tags tell the direction and shape of the fitted curve.

Chain of UniProt Q8TD30 (Q8TD30 whole entry, looked up): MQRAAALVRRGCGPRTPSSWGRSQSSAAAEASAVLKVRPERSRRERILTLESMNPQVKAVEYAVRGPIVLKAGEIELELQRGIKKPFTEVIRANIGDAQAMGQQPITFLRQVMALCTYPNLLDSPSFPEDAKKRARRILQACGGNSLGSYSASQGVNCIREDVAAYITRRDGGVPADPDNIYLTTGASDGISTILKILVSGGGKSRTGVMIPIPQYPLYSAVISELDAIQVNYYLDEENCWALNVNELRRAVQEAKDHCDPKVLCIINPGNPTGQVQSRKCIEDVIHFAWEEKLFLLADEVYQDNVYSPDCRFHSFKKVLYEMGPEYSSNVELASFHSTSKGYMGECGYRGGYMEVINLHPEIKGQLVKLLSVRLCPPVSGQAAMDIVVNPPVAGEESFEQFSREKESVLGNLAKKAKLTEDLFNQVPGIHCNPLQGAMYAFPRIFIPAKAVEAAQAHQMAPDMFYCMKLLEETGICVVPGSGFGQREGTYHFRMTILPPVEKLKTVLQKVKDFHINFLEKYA

Row | Structure (SMILES) | Potency
1 | CCC(=O)N1C[C@@H](Oc2ccccc2)C[C@H]1C(=O)N1CCOCC1 | inconclusive [inhibitor, partial curve, poor fit]
2 | COc1ccccc1CN1CCC(CN(CC(C)C)C(=O)C2C=CCN2)CC1 (configuration not stated) | inconclusive [inhibitor, single point]
3 | COc1ccc(CCC(=O)N2CCCC(n3cc(-c4nc(-c5ccccc5)no4)nn3)C2)cc1 (configuration not stated) | inactive
4 | CN(Cc1nccs1)c1ccc(-c2nc(-c3ccccc3F)no2)cn1 | inactive
5 | C[C@@H](c1ccccc1)N(C)C(=O)c1cc(COc2cccc(F)c2)[nH]n1 | inconclusive [inhibitor, partial curve]
6 | CN1[C@@H](CCC(=O)Nc2ccccc2)CNC(=O)[C@@H]2[C@H]1CCN2CC(C)(C)C | inconclusive [inhibitor, partial curve, poor fit]
7 | O=C(NC1CCOCC1)C1CCN(c2nccc(Nc3ccccc3F)n2)CC1 | inactive
8 | CC(=O)NC1(C)CCN(Cc2ccc(Nc3ccc(N4CCOCC4)c(F)c3)cc2)C1 (configuration not stated) | inconclusive [inhibitor, full curve, poor fit]
9 | CC(C)Oc1cccc2c1c(NC(=O)c1cc(F)cc(C#N)c1)nn2C | inconclusive [inhibitor, partial curve]
10 | O=C(Cc1c[nH]c2ccccc12)N1CCCC2(C1)Nc1cccnc1NC2=NC1CCCC1 (configuration not stated) | inconclusive [inhibitor, partial curve, poor fit]
11 | Cc1cccc(C(=O)N2CC(CNC(=O)N3CCCC3)C3(CCOCC3)C2)c1 (configuration not stated) | inactive
12 | O=C(N[C@H]1CO[C@H]2[C@@H]1OC[C@@H]2n1cc(CC2CCCCC2)nn1)c1ccc(C(F)(F)F)cc1 | inconclusive [inhibitor, partial curve, poor fit]
13 | O=C(O)Cn1ccc2cc(OCC3CCN(C(=O)OC4CCCC4)CC3)cnc21 | inactive
14 | COc1cccc(C(=O)N2CCC3(CC2)N(c2ccccc2)C(=O)CS3(=O)=O)c1 | inactive
15 | O=C(NC[C@H]1O[C@H](Cc2cc(-c3ccc(F)cc3)on2)CC[C@@H]1O)C1CCC1 | inconclusive [inhibitor, partial curve]
16 | CCCNC(=O)N(C1CCOCC1)C1CCN(C(=O)c2ccc(C)c(F)c2)CC1 | inconclusive [inhibitor, single point]
17 | CCn1ccnc1CN(C)Cc1cn(Cc2ccccc2)nc1-c1ccc2c(c1)OCO2 | inconclusive [inhibitor, single point]
